Experimental data published in PubChem BioAssay AID493208 (National Center for Advancing Translational Sciences (NCATS), 2011).
In all, about 44,000 compounds went through this assay and about 340 (0.77%) were called active. Inconclusive results (about 5%) are left out. The call rests on the fitted dose curve; in most records, active means well fitted inhibition curve with a large enough effect; inconclusive means small, poorly fitted or top-dose-only effect; inactive means flat fitted curve, though single readings scatter. Some of the results follow.

Assay: Acumen qHTS Assay for Inhibitors of the mTORC1 Signaling Pathway in MEF (Tsc2-/-, p53-/-) Cells: Sytravon;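 further: plate controls were DMSO for no effect and rapamycin for full effect; nearly all actives have a fitted effect of over 50% in size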
Conditions: phospho-rpS6 immunofluorescence/PI, 24 h; series mostly up to 38.3 µM; activity change, negative = inhibition: at the top concentration
How it was run: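 Read-out: phospho-S6 Alexa-488 intensity over PI intensity per well, scored as % active cells using thresholds from rapamycin (7.5 nM) and DMSO controls. Tsc2-/-, p53-/- MEFs exposed to compound for 24 h; PI cell count recorded as viability.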

Activity change, negative = inhibition, inactive:
CCOc1ccc(-c2cn3c(n2)sc2cc(C(=O)NCCc4ccc(OC)c(OC)c4)ccc23)cc1 2.49%
Cc1ccc(C2=NN(CC(=O)NCCc3ccc(Cl)cc3)C(=O)CC2)cc1 0%
COc1ccc(CCNC(=O)CCn2c(=O)c3cccn3c3cccnc32)c(OC)c1OC 4.25%
Cc1cccc(NC(=O)N2CCC(n3c(C)nc4cccnc43)CC2)c1 3.68%
O=C(CSc1nccn1Cc1ccccc1)Nc1ccc2c(c1)OCO2 -1.07%
CCOC(=O)N1CCC(NC(=O)c2ccc3c(c2)N(Cc2cc(C)ccc2C)C(=O)c2ccccc2S3=O)CC1 (centres undefined) -15.6%
CCC(C)(C)NC(=O)Cn1c(=O)ccc2cc(S(=O)(=O)N3CCC(C)CC3)ccc21 2.9%
CCOc1cc(C(=O)NCCc2csc(-c3ccc(C)cc3)n2)cc(OCC)c1OCC -1.19%
CN(C(=O)c1cc2c(=O)n3ccccc3nc2n1C)c1ccccc1 3.23%
CC(=O)Nc1nnc(SCc2cc(=O)c3cccc(Cl)c3[nH]2)s1 1.28%
CCOc1ccc(CCNC(=O)Cn2nnc(-c3ccc(C(F)(F)F)cc3)n2)cc1OCC -1.9%
Cn1cc(CCCC(=O)NCc2ccccc2Cl)c2ccccc21 9.43%
CCOC(=O)c1c(NC(=O)CSc2nc(-c3ccccc3)cc(C(F)(F)F)n2)sc(C)c1C -1.28%
CCOc1ccc(OCC)c(Nc2cc(C)nc3nc(-c4ccco4)nn23)c1 0%
CC(=O)N1c2ccc(S(=O)(=O)N3CCCCCC3)cc2CC1C(=O)NCc1ccccc1F (centres undefined) 13.9%
Cc1ccc(CNc2ccc(-c3nc(-c4ccccn4)no3)cc2[N+](=O)[O-])cc1 -7.75%
O=C(c1ccc([N+](=O)[O-])cc1)N1CCN(c2ccc(Nc3ccccc3)nn2)CC1 0.275%
CCOc1ccc(CCNC(=O)CN2C(=O)c3cccnc3Oc3ccc(Cl)cc32)cc1 -11.8%
CCOC(=O)c1c(S(=O)(=O)N2CCC(C(=O)Nc3ccc(OCC)cc3)CC2)c(C)n(C)c1C -6.3%
CCCCN(CCCC)CCNC(=O)c1cn(C)c2ccc(S(=O)(=O)N3CCCC3)cc2c1=O 4.32%
COc1ccc(OC)c(NC(=O)N2c3ccccc3Sc3ccccc32)c1 1.9%
CCc1ccc(C2c3c(-c4cc(C)ccc4O)n[nH]c3C(=O)N2Cc2cccnc2)cc1 (centres undefined) 1.77%
Cc1ccc(OCc2nc(-c3ccc(C(=O)N4CCN(c5ccccc5)CC4)cc3)oc2C)cc1 -8.9%
O=C(NCc1ccccc1Cl)c1ccc(Nc2nc3ccccc3n3nnnc23)cc1 -7.36%
Cc1c(NC(=O)Nc2ccc(F)c(Cl)c2)c(=O)n(-c2ccccc2)n1C -4.95%
Cc1nn(CCC(=O)N2CCN(c3ccccc3)CC2)c(C)c1S(=O)(=O)N1CCCC1 -1.24%
CCc1cnc2c(c1SCC(=O)N1CCC(C)CC1)c(=O)n(C)c(=O)n2C 0.41%
Cc1ccc(-n2nc(C)c3c(C(=O)NCc4ccc(F)cc4)cc(C)nc32)cc1 0%
Cc1cccc(N2CC(C)Cn3c2nc2c3c(=O)n(CC(=O)O)c(=O)n2C)c1 (centres undefined) -1.59%
CCc1cccc(NC(=O)CCc2nc3cccnc3n2-c2ccccc2)c1 0.392%
COCCNC(=O)c1cccc(Nc2nc3ccccc3n3nnnc23)c1 0%
CSc1ccc(CCNC(=O)c2ccc(CS(=O)(=O)c3ccc(Br)cc3)o2)cc1 -11.3%
O=C(Nc1ccc(F)cc1F)c1cc2c(=O)n3ccccc3nc2s1 -16.4%
CCOc1cc(CNC(=O)c2ccc3c(c2)N(C)C(=O)C2CCCCN32)cc(OCC)c1OCC (centres undefined) -0.594%
CCOC(=O)N1CCc2c(sc(NCc3ccc(N(C)C)cc3)c2C(=O)Nc2ccc(OC)cc2)C1 13.2%
CC1CCc2c(sc(NC(=O)c3ccc(Cl)cc3Cl)c2C#N)C1 (centres undefined) 4.63%
COc1ccc(NC(=O)CCc2c(C)nc3c(c2C)c(=O)n(C)c(=O)n3C)cc1OC 2.16%
O=C1N(Cc2cccc(C(F)(F)F)c2)c2ccccc2S(=O)(=O)N1c1cccc(Cl)c1 -0.155%
COc1ccc(CNC(=O)c2cc3cc(S(=O)(=O)N4CCCCC4)ccc3n2C)c(OC)c1 -1.1%
Cc1c(Cl)cccc1N1C(N)=C(C#N)C(c2cc(CN3CCOCC3)cs2)C2=C1CCCC2=O (centres undefined) -2.86%
O=c1c2sc3ccccc3c2n(Cc2cccc(C(F)(F)F)c2)c(=O)n1Cc1ccccc1 -4.36%
CCN(CC)C(=O)CSc1nc2cc3c(cc2c(=O)n1CCCCCC(=O)NCCc1ccc(OC)c(OC)c1)OCO3 -0.0959%
COCCNC(=O)CCc1c(C)nc2c(c(C)nn2-c2ccc(C)cc2)c1C 0.636%
COc1ccc(CNC(=O)c2ccc3c(c2)N(Cc2ccccc2F)C(=O)c2ccccc2S3(=O)=O)cc1 0.0888%
CCOc1ccc(NC(=O)c2c(NCc3sccc3C)sc3c2CCCCC3)cc1 -8.96%
Cc1cc(F)ccc1NC(=O)CN(C)S(=O)(=O)c1ccc(C(=O)N2CCOCC2)s1 6.84%
CCCN(CCC)c1nc(-c2ccccc2F)nc2ccccc12 1.54%
CCc1ccccc1NC(=O)CSC1=Nc2ccccc2C2=NC(Cc3ccccc3)C(=O)N12 (centres undefined) 0%
COc1ccc(OCc2ccc(-c3nc(C#N)c(N4CCN(c5cccc(Cl)c5)CC4)o3)o2)cc1 -1.64%
O=C(COc1ccc([N+](=O)[O-])cc1)Nc1cccc2cccnc12 -2.47%
COc1cc(NC(=O)C2CCCN(S(=O)(=O)c3ccc4c(c3)CCCC(=O)N4)C2)cc(OC)c1 (centres undefined) -2.05%
COc1cc(Cl)c(C)cc1NC(=O)Cn1ncc2c(=O)oc3ccccc3c21 -0.975%
CCC(C(=O)OC)n1cnc2c(cnn2-c2ccc(F)cc2)c1=O (centres undefined) 6.43%
COc1ccc(-c2nc(SCC(=O)c3ccc(OC)c(Br)c3)n[nH]2)cc1 -0.284%
CSc1ncc(Cl)c(C(=O)Nc2ccc(S(=O)(=O)N3CCCC(C)C3)cc2)n1 (centres undefined) -14.9%
CCOc1cccc(C2c3[nH]c4ccccc4c3CCN2C(=O)CCC2CCCC2)c1 (centres undefined) 5.28%
Cc1cc(NC(=O)NCc2ccc3c(c2)CCN3C(=O)c2ccccc2)ccc1Br 1.2%
CCOc1ccc(S(=O)(=O)c2cn(Cc3ccccc3)c3ccc(OCC)cc3c2=O)cc1 1.61%
CC(C)(C)OC(=O)N1CCC(c2c(C(=O)NCc3ccco3)cnn2-c2ccccc2)CC1 0.811%
Cc1cc(=O)n2nc(N3CCC(C(=O)NCc4ccccc4)CC3)sc2n1 3.18%
Cc1ccc(NC(=O)Cn2cnc3nc4c(cc3c2=O)CCCC4)cc1Cl 1.37%
CCc1ccc(CNC(=O)c2cnc3sc(N4CCCCC4)nn3c2=O)cc1 -10.4%
Cc1cccc(C(=O)NC(=O)Nc2ccc(-c3cc(C(F)(F)F)nn3-c3ccccc3)cc2)c1 -4.89%
CCn1c(=O)cc(SCC(=O)NCc2ccccc2OC)c2ccccc21 -3.87%
COc1ccc2cc(C(=O)NCc3ccc4c(c3)CCN4C(=O)c3ccccc3)[nH]c2c1 -6.84%
COc1ccc(C(=O)Nc2ccc(OCc3cc(=O)n4ccsc4n3)cc2)cc1OC 0.216%
O=C(NCc1cccnc1)C(=O)NCC(c1cccnc1)N1CCN(c2ccccc2F)CC1 (centres undefined) -6.78%
Cc1cc(C)c2c(=O)cc(C(=O)Nc3ccc(S(=O)(=O)N(C)Cc4ccccc4)cc3)oc2c1 6.58%
O=C(C1CCN(S(=O)(=O)c2cccc3nonc23)CC1)N1CCN(c2ccccc2F)CC1 -1.63%
CCOC(=O)c1sc2ccccc2c1S(=O)(=O)N1CCN(c2cccc(C)c2C)CC1 2.61%
Cc1nn(-c2ccc(F)cc2)c(-n2cccc2)c1C(=O)NCCCN1CCN(c2cccc(Cl)c2)CC1 -4.56%
COc1cccc(NC(=O)Cn2c(=O)n(CC(=O)NCc3ccc(C)cc3)c(=O)c3sccc32)c1 2.83%
Nc1nnc(SCC(=O)Nc2ccccc2)s1 -9.56%
Cc1ccc2nc(-c3c[nH]c4ccccc34)c(Nc3ccccc3C)n2c1 -19.5%
Cc1cc(C)c(NC(=O)CN2C(=O)c3cccnc3Oc3ccc(C)cc32)c(C)c1 -3.25%
Cc1ccc(-c2cc(NC(=O)COc3ccc(Cl)c(C)c3)on2)cc1 -0.358%
CCN1CCN(C(=O)Cn2ncc3c4ccccc4n(Cc4ccccc4)c3c2=O)CC1 1.35%
Cc1ccc(/C=C/C(=O)Nc2ccc(S(N)(=O)=O)cc2)o1 -6.38%
Cc1cc(C)c(Cn2c3ccccc3c3cnn(CC(=O)NCc4ccccn4)c(=O)c32)c(C)c1 -3.86%
O=C(CCS(=O)(=O)c1ccc(Br)cc1)Nc1ccc(Cl)c(C(F)(F)F)c1 1.36%
CCOC(=O)c1cccc(NC(=O)c2cn(-c3cccc(OC)c3)c(=O)c3ccccc23)c1 -18.4%
COc1ccccc1CCNC(=O)C(=O)NCC(c1cccs1)S(=O)(=O)c1ccccc1 (centres undefined) -11.7%
Fc1cc(F)c2ncc3c(-c4ccccc4)nn(-c4cccc(Cl)c4)c3c2c1 -1.77%
CC(C)OCCCNC(=O)C(=O)Nc1ccc2nc3n(c(=O)c2c1)CCCCC3 -0.468%
Cc1ccc(Sc2ccc(N3CCC(C(=O)Nc4ccc(C)c(F)c4)CC3)nn2)cc1 1.53%
Cc1cccc(Cn2c(=O)n(Cc3ccccc3)c(=O)c3oc4ccccc4c32)c1 3.4%
Cc1ccccc1NC(=O)C1CCN(C(=O)c2cnn(-c3ccccc3)c2-n2cccc2)CC1 -0.151%
COc1cc(NC(=O)N(Cc2ccco2)C2CCN(C(C)=O)CC2)cc(OC)c1OC -8.05%
Cc1cccc(-c2nc3nc(C)cc(NCc4ccccc4Cl)n3n2)c1 -3.34%
CC1CCN(c2oc(-c3ccc(COc4ccccc4)o3)nc2C#N)CC1 -19.5%
CCc1ccc(-n2c(N3CCN(c4cccc(Cl)c4)CC3)nc3ccccc3c2=O)cc1 -8.91%
Cc1ccc(-n2c(SCC(=O)NCc3ccccc3)nc3n[nH]c(C)c3c2=N)cc1Cl -2.62%
O=C(NCC(c1cccs1)S(=O)(=O)c1cccs1)c1ccc(Cl)cc1 (centres undefined) -4.33%
CC(C)c1cnc2c(c1SCc1cccc(F)c1)c(=O)n(C)c(=O)n2C -12.3%
